Laboratory results as given in PubChem BioAssay AID2100 (National Center for Advancing Translational Sciences (NCATS), 2009).
The whole screen tested about 300,000 compounds, of which about 1,200 (0.4%) were called active. This list was built around the results that the source calls inconclusive (neither active nor inactive); the mix of calls is not that of the screen. The call rests on the fitted dose curve; in most records, active means well fitted inhibition curve with a large enough effect; inconclusive means small, poorly fitted or top-dose-only effect, or another doubt; inactive means no such curve, though single readings can be large or run the other way. Potencies of inconclusive entries are doubtful fits and often do not repeat.

Each compound was assayed against Lysosomal alpha-glucosidase (Homo sapiens) (UniProt P10253) (assay: qHTS Assay for Inhibitors and Activators of Human alpha-Glucosidase Cleavage of Glycogen). Details: recombinant GAA, glycogen substrate, Amplex Red glucose oxidase fluorescence; activity change, negative = inhibition: at 76.4 µM (top of the series) unless noted.
Text: NIH Chemical Genomics Center [NCGC] NIH Molecular Libraries Probe Production Centers Network [MLPCN] MLPCN Grant: R03 MH084841-01 Assay Submitter (PI): Wei Zheng NCGC Assay Overview: Alpha-glucosidase is responsible for the hydrolysis of terminal, non-reducing 1,4-linked alpha-D-glucose residues, which releases alpha-D-glucose. It is a lysosomal hydrolase that is required for the degradation of a small percentage (1-3%) of cellular glycogen in humans. Deficiency of this enzyme results in glycogen-storage disease type II (GSDII), also referred to as Pompe disease, an autosomal recessive disorder. Structurally normal glycogen is accumulated in the lysosomes and cytoplasm in affected patients, primarily in muscle tissues. Excessive glycogen storage within lysosomes may interrupt normal functioning of other organelles and leads to cellular injury. In turn, this leads to enlargement and dysfunction of the entire organ involved (eg: cardiomyopathy and muscle weakness). It has been reported that the improper folding and trafficking of alpha-glucosidase resulting from genetic mutations may account for a significant number of Pompe patients. […] We optimized this alpha-glucosidase assay in 1536-well plate format for identification of novel small molecule inhibitors or activators with structures other than the sugar analogs in order to develop new pharmacological chaperones. Previous assays of alpha-Glucosidase have utilized a non-natural fluorescent substrate to probe enzyme activity. The present assay measures enzyme activity on glycogen using a coupled-assay system to glucose oxidase.
NCGC Assay Protocol Summary: This is an enzyme assay using glycogen from bovine liver (Sigma catalog #: G0885) as the substrate and recombinant human alpha-glucosidase as the enzyme preparation. Upon hydrolysis of the substrate, the glucose product can be detected using the Amplex Red Glucose Oxidase Assay Kit (Invitrogen catalog #: A22189). The product of this reaction can be read with a fluorescence plate reader with an excitation at 573 nm and an emission at 610 nm. Data were normalized to the controls for basal activity (without enzyme) and 100% activity (with enzyme). The AC50 values were determined from concentration-response data modeled with the standard Hill equation. Assay buffer for enzyme reaction: 50 mM citric acid (titrated with potassium phosphate to pH 5.0), 0.01% Tween-20 (pH 5.0 is an optimal condition for this enzyme assay) Assay buffer for Amplex Red reaction: Tris-HCl, pH 7.5 1536-well assay protocol for the alpha-glucosidase assay: (1) Add 2 ul/well alpha-glucosidase enzyme solution (4 nM final) (2) Add 23 nL compounds in DMSO solution. The final titration was 0.7 nM to 77 uM. (3) Add 1 ul of glycogen substrate solution (30 ug) (4) Incubate at 37 C for 40 min (5) Add 2 ul tris-HCl buffer with Amplex Red reagents (6) Incubate 45 min at room temperature. (7) Detect the assay plate in a ViewLux plate reader (PerkinElmer) with Ex=573 nm and Em=610nm. Keywords: Alpha-glucosidase, Pompe Disease, pharmacological chaperone, chaperone therapy, high throughput screening, alpha-glucosidase inhibitor, MLSMR, MLSCN, NIH Roadmap, qHTS and NCGC
Potency means the concentration at half of the fitted maximal effect.
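Wherever activity change, negative = inhibition is given: 0% = full enzyme reaction and -100% = no-enzyme basal signal.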

SMILES | Potency | activity change, negative = inhibition
O=C(CCCCl)NC1=NN(c2ccccc2)C(=O)C1 | inconclusive: 22.4 µM [inhibitor, partial curve] | –
O=C1c2ccccc2C(=O)N1CCc1c[nH]c2ccc(O)cc12 | active: 3.14 µM | –
CCOC(=O)NC1(Nc2cccc(Cl)c2)Oc2ccccc2O1 | inconclusive: 5.01 µM [inhibitor, full curve] | –
O=C(/C=C/c1cccc(Br)c1)NC1CCN(Cc2ccccc2)CC1 | – | inactive: 2.78%
COc1cc(/C=C2\C(=O)NN(c3ccccc3)C2=O)cc([N+](=O)[O-])c1O | inconclusive: 12.5 µM [inhibitor, partial curve] | –
Cc1sc(NC(=O)c2ccco2)c(CN2CCN(c3ccccn3)CC2)c1C | inconclusive: 15.7 µM [inhibitor, partial curve] | –
COc1cccc(C(=O)Nc2nnc(-c3ccccc3)s2)c1OC | inconclusive: 35.5 µM [inhibitor, partial curve] | –
Cc1ccc(NCc2n[nH]c(=S)n2-c2cccc(Cl)c2)cc1 | inconclusive: 35.5 µM [inhibitor, partial curve] | –
COc1ccc(NC(=S)Nc2cccc(Cl)c2)cc1OC | inconclusive: 35.5 µM [inhibitor, partial curve] | –
CCn1c(CSc2nc3ccccc3s2)nnc1SCC(=O)c1ccc(O)c(O)c1 | inconclusive: 11.1 µM [inhibitor, partial curve] | –
Cc1ccc2cc(CN(CCc3ccccc3)C(=S)NCCCN(C)C)c(=O)[nH]c2c1 | – | inconclusive: 12.5% [activator] [at 76.3 µM]
CCCCC1C2C(=O)N(c3ccc(C)cc3)C(=O)C2ON1c1ccccc1 (stereo not drawn) | inconclusive: 28 µM [inhibitor, single point] | –
COc1ccccc1N1CCN(/N=C/c2ccc(O)cc2O)CC1 | inconclusive: 14.1 µM [inhibitor, partial curve] | –
COc1ccc(NC2CC(=O)NC2=O)cc1 (stereo not drawn) | active: 11.2 µM | –
COc1cc(/C=N/Nc2ccc(Cl)c(C(=O)O)c2)ccc1OCC(=O)N1C(C)CCCC1C (stereo not drawn) | inconclusive: 14 µM [inhibitor, partial curve] | –
Cc1cc(=O)[nH]c(N/N=C/c2c(O)n(-c3ccccc3)c(=O)c3ccccc23)n1 | inconclusive: 12.6 µM [inhibitor, partial curve] | –
CCOc1ccc(NC(=O)N(CCCN2CCOCC2)Cc2cccnc2)cc1 | – | inactive: 13.2%
CC(C)OC(=O)C(C(=O)C(F)(F)F)c1cc(NS(=O)(=O)c2ccc3ccccc3c2)c2ccccc2c1O (stereo not drawn) | inconclusive: 25.1 µM [inhibitor, partial curve] | –
CCOC(=O)C1=C(CNCc2ccccc2)NC(=O)NC1c1ccc(C)cc1 (stereo not drawn) | – | inactive: 3.8% [at 76.3 µM]
COc1cc(/C(C)=N/NC(=S)NC(C)C)cc(OC)c1OC | inconclusive: 31.6 µM [inhibitor, single point] | –
COc1cc(-c2nnc(SCC(=O)N(C)C3CCCCC3)o2)cc(OC)c1OC | inconclusive: 25.1 µM [inhibitor, partial curve] | –
COc1ccc2ccccc2c1/C=N/N1C(=O)CSC1=S | inconclusive: 15.8 µM [inhibitor, partial curve] | –

SMILES | Potency | activity change, negative = inhibition
COc1ccc(-c2[nH]c(-c3ccccc3)nc2SCC(=O)Nc2ccc3c(c2)OCO3)cc1 | – | inactive: -11.1% [at 76.3 µM]
O=C(NNC(=S)Nc1ccccc1)c1ccncc1 | inconclusive: 39.8 µM [inhibitor, partial curve] | –
O=C(NNC(=S)NCc1ccccc1)c1ccc(Br)o1 | inconclusive: 14.1 µM [inhibitor, partial curve] | –
COc1ccc(C2c3sc(=O)[nH]c3SCC2C(N)=O)cc1 (stereo not drawn) | inconclusive: 14.1 µM [inhibitor, partial curve] | –
CCOC(=O)N1CCC(=NNc2ncc(C(F)(F)F)cc2Cl)CC1 | inconclusive: 8.91 µM [inhibitor, full curve] | –
O=C(CN1C(=O)/C(=C/c2ccco2)SC1=S)Nc1ccc(C(=O)O)c(O)c1 | inconclusive: 35.5 µM [inhibitor, single point] | –
CNc1oc(-c2ccc(Cl)cc2)nc1C#N | inconclusive: 24.9 µM [inhibitor, single point] | –
CN(C)c1ccc(-c2nc3ccccn3c2Nc2ccc3c(c2)OCCO3)cc1 | active: 17.8 µM | –
Fc1ccc(CNc2ccc(N3CCN(Cc4ccccc4)CC3)cc2)cc1 | active: 8.91 µM | –
CCOc1cc(/C=N/NC(=O)c2cc(C3CC3)[nH]n2)ccc1O | inconclusive: 12.6 µM [inhibitor, partial curve] | –
CCOC(=O)c1cnc2c(C)cc(C)cc2c1Nc1ccc(N2CCOCC2)cc1 | inconclusive: 4.47 µM [inhibitor, full curve] | –
COc1ccc(C(=O)N2CCN(Cc3cc(OC)c(O)c(OC)c3)CC2)cc1OC | active: 20 µM | –
COc1ccccc1-c1cc2nc(C)c(CCC(=O)NC(C)CCc3ccco3)c(C)n2n1 (stereo not drawn) | inconclusive: 100 µM [inhibitor, partial curve, poor fit] | –
Cc1cccc(NC(=S)N/N=C(\c2ccccc2)C(C)C)c1 | inconclusive: 39.8 µM [inhibitor, partial curve] | –
CC(C)OCCCNc1ncnc2c1cnn2-c1ccccc1 | inconclusive: 28 µM [inhibitor, single point] | –
C/C(=N\NS(=O)(=O)c1ccc(C)cc1)c1ccc(C)o1 | inconclusive: 12.6 µM [inhibitor, partial curve] | –
Cc1nc(-c2cccs2)sc1C(=O)NN | inconclusive: 17.8 µM [inhibitor, single point] | –
COc1ccc(/C=N/Nc2nc(N3CCCC3)nc(N3CCCC3)n2)cc1O | inconclusive: 31.6 µM [inhibitor, partial curve] | –
NC(=O)CCC1NC(=S)N(Cc2ccccc2)C1=O (stereo not drawn) | inconclusive: 15.8 µM [inhibitor, partial curve] | –
O=C(O)c1ccc(N/N=C/c2c[nH]c3ccccc23)cc1 | inconclusive: 3.14 µM [inhibitor, partial curve] | –
COc1ccc(S(=O)(=O)NNC(=O)c2ccc([N+](=O)[O-])cc2)cc1 | inconclusive: 20 µM [inhibitor, partial curve] | –
